# Reference: PubChem BioAssay AID624418 (National Center for Advancing Translational Sciences (NCATS), 2012)
# Out of some 410,000 compounds screened, about 530 (0.13%) were called active. The inconclusive results got no clear call from the source; some entries with a clear call stand among them for comparison. Calls follow the shape of the dose curve; as a rule, active = well fitted inhibition curve with a large enough effect; inconclusive = small, poorly fitted or top-dose-only effect, or another doubt; inactive = no such curve, though single readings can be large or run the other way. A potency beside an inconclusive call is a rough fit, not a confirmed value.
# Assay: qHTS of GLP-1 Receptor Inverse Agonists: Cytotox Screen
# Settings: HEK293 cAMP-luciferase reporter cells, luminescence, 24 h; activity change, negative = inhibition: at 38.3 µM (top of the series) unless noted
# Method in brief: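 Quantitative HTS format, 1536 wells, 200 cells/uL seeded. Compounds: 23 nL, 24 h, 37 °C. Detection: luciferase reagent, luminescence at 12 min RT; decreased signal taken as cytotoxic.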
# % is scaled to controls: 0 for no effect and ±100 for the full control effect; potency is read from the fitted curve at half-maximal effect.
SMILES,Potency,"activity change, negative = inhibition"
Cc1cc(C)c(Cn2cnc3nc4c(cc3c2=O)CCCC4)c(C)c1,inactive,–
Cc1ccc(NC(=O)c2cc(NC(=O)c3ccco3)ccc2N2CCOCC2)cc1,"inconclusive: 2.51 µM [inhibitor, partial curve, poor fit]",–
O=C(NCCc1ccccc1)C1CCN(Cc2cccc3ccccc23)CC1,"inconclusive: 28.2 µM [inhibitor, single point]",–
C/C(=N\Nc1nc(-c2ccccn2)nc2ccccc12)c1ccc(F)cc1,"inconclusive: 4.47 µM [inhibitor, partial curve]",–
Cc1ccc(Nc2nc(CSc3nnnn3-c3ccccc3)cs2)cc1,inactive,–
COc1ccc(C(=O)NC(=S)N2CCC(C)CC2)cc1,"inconclusive: 28.2 µM [inhibitor, single point]",–
OC(COc1ccc2c(c1)CCC2)CN1CCN(c2cccc(Cl)c2)CC1 (stereo not drawn),"inconclusive: 20 µM [inhibitor, single point]",–
C/C(=N\NC(=S)NC1CCCCC1)c1c(F)cccc1F,"inconclusive: 3.98 µM [inhibitor, full curve, poor fit]",–
CCN(CC)C(=O)c1sc2c(c1C)c(=O)n(Cc1ccccc1)c(=O)n2Cc1c(C)cc(C)cc1C,inactive,–
COC(=O)c1cc(=O)nc2scc(C)n12,"inconclusive: 28.2 µM [inhibitor, single point]",–
FC(F)Sc1ccc(NC(=S)NC2CCCCC2)cc1,"inconclusive: 12.6 µM [inhibitor, single point]",–
COc1ccc(NC(=O)Cc2coc3cc(C)c(C(C)C)cc23)cc1S(=O)(=O)N1CCOCC1,"inconclusive: 14.1 µM [inhibitor, partial curve, poor fit]",–
CCN(c1ccccc1)S(=O)(=O)c1cc(C(=O)NCC(c2ccco2)N2CCCCC2)ccc1C (stereo not drawn),"inconclusive: 28.2 µM [inhibitor, single point]",–
COc1ccccc1N1CCN(/N=C/c2ccc(OC)c(OC)c2OC)CC1,inactive,–
COc1cccc(/C=N/NC(=O)c2ccc([N+](=O)[O-])cc2Cl)c1O,"inconclusive: 1 µM [inhibitor, full curve, poor fit]",–
Cc1cc2cc(CNC(=S)Nc3ccc(OC(F)F)cc3)ccc2[nH]1,inactive,–
N#C/C(=C/N1CCOCC1)c1ccccc1,"inconclusive: 11.2 µM [inhibitor, single point]",–
COc1ccc(C(=O)CCS(=O)(=O)c2ccc(C)cc2)cc1OC,"inconclusive: 28.2 µM [inhibitor, single point]",–
CN[C@@H]1CC[C@H](c2ccc(Cl)c(Cl)c2)c2ccccc21,"inconclusive: 28.2 µM [inhibitor, single point]",–
Cc1ccccc1C(=O)Nc1cccc(NC(=O)c2ccc(F)cc2)c1,inactive,–
COc1cccc(/C=C/C(=O)OCC(=O)c2c(N)n(C)c(=O)n(C)c2=O)c1,inactive,–
CCc1ccc(-c2cc(C)no2)cc1S(=O)(=O)NCc1ccc(OC)cc1,"inconclusive: 1.78 µM [inhibitor, full curve, poor fit]",–
CCOC(=O)c1cccc(Nc2nc(-c3cccnc3)nc3ccccc23)c1,"inconclusive: 11.2 µM [inhibitor, partial curve, poor fit]",–

SMILES,Potency,"activity change, negative = inhibition"
C=CCOc1ccccc1C(=O)/C=C1/C(=O)Nc2ccccc21,"inconclusive: 20 µM [inhibitor, single point]",–
O=C(c1ccc(-c2cccc(C(F)(F)F)c2)o1)N1CCN(c2ccccc2O)CC1,"inconclusive: 14.1 µM [inhibitor, single point]",–
NNC(=O)/C(=N/Nc1ccccc1)S(=O)(=O)c1ccc(Cl)cc1,"inconclusive: 11.2 µM [inhibitor, single point]",–
Cc1ccccc1C1C(C#N)=C2N=C(N)c3c(sc4c3CCCCC4)N2C2=C1C(=O)CCC2 (stereo not drawn),"inconclusive: 28.2 µM [inhibitor, single point]",–
Cc1ccc(NC(=S)c2nc3ccccc3s2)cc1,"inconclusive: 2.51 µM [inhibitor, full curve, poor fit]",–
COc1ccc(S(=O)(=O)Nc2cc(C(=O)NC(C)C)ccc2N2CCOCC2)cc1,"inconclusive: 10 µM [inhibitor, partial curve, poor fit]",–
O=C1CCC2CCCCC2(O)O1 (stereo not drawn),inactive,–
CC(=O)Oc1ccc(Cn2c(C)c(C(=O)NCc3ccc4c(c3)OCCO4)sc2=O)cc1,inactive,–
O=C(OC12CC3CC(CC(C3)C1)C2)c1ccc(NCc2cc(O)ccc2O)cc1,"inconclusive: 3.16 µM [inhibitor, partial curve]",–
COc1cc(OC)cc(C(=O)Nc2nc(CC(=O)NCc3ccccc3OC)cs2)c1,"inconclusive: 28.2 µM [inhibitor, single point]",–
Oc1c(Br)cc(Br)cc1/C=N/NC(=S)N[C@H]1CC2C=CC1C2 (stereo partly drawn),inactive,–
COC(=O)CCC(=O)N1CCCC(N2CCN(c3cccc(C(F)(F)F)c3)CC2)C1 (stereo not drawn),"inconclusive: 22.4 µM [inhibitor, single point]",–
COCC(=O)N/N=C/c1c(C)[nH]n(-c2ccccc2)c1=O,inactive,–
CC(=O)c1cccc(NC(=O)c2ccc3c(c2)CCCC3)c1,"inconclusive: 11.2 µM [inhibitor, single point]",–
Nc1nc(-c2cccs2)c(NC(=O)c2ccccc2)s1,"inconclusive: 28.2 µM [inhibitor, single point]",–
O=C(CSc1nc2ccccc2o1)N1N=C(c2cccs2)CC1c1ccc(F)cc1 (stereo not drawn),inactive,–
CN(C)c1ccc(C=NNC(=O)c2cccnc2)cc1,inactive,–
C[C@H]1CN([C@@H](C)CO)S(=O)(=O)c2ccc(Br)cc2O[C@@H]1CN(C)Cc1ccccc1,"inconclusive: 12.6 µM [inhibitor, single point]",–
Cc1cccc(N=N/C(=C\O)C(=O)c2cccs2)c1,"inconclusive: 7.94 µM [inhibitor, partial curve, poor fit]",–
Cc1cc2n(n1)SC(Nc1ccc(F)cc1)N2 (stereo not drawn),"inconclusive: 28.2 µM [inhibitor, single point]",–
COc1ccccc1-c1nc2c3ccccc3nc(=S)n2[nH]1,"inconclusive: 1 µM [inhibitor, full curve, poor fit]",–
Cc1ccccc1/C=c1\s/c(=C\C(=O)C(C)(C)C)[nH]c1=O,"inconclusive: 5.62 µM [inhibitor, partial curve, poor fit]",–
CC1=CC(C)(C)n2c(O)c(N=NC(N)=S)c3cccc1c32,"inconclusive: 3.98 µM [inhibitor, full curve, poor fit]",–

SMILES,Potency,"activity change, negative = inhibition"
COc1ccc(C(=O)Nc2ccc3nc(N4CCN(C)CC4)cc(C)c3c2)c(OC)c1,"inconclusive: 28.2 µM [inhibitor, single point]",–
Clc1cccc(Cl)c1Cn1nnc(N2CCCC2)n1,inactive,–
CCOc1cc(C2C(C(=O)c3ccc(C)o3)=C(O)C(=O)N2CCc2ccccc2)ccc1O (stereo not drawn),inactive,–
O=C(NC(=S)NCCC1=CCCCC1)c1ccco1,"inconclusive: 15.8 µM [inhibitor, single point]",–
Cc1cc(Br)ccc1NC(=O)CN(C)C(=O)CSC(=S)N1CCCC1,inactive,–
O=C(N/N=C/c1ccc(Cl)cc1)c1sccc1OCc1ccc(F)cc1,"inconclusive: 1 µM [inhibitor, full curve, poor fit]",–
COc1ccc(N/N=C(\C#N)C(N)=O)cc1,"inconclusive: 14.1 µM [inhibitor, single point]",–
Cn1c(N)c(C(=O)COC(=O)/C=C/c2ccc(Cl)cc2Cl)c(=O)n(C)c1=O,"inconclusive: 11.2 µM [inhibitor, single point]",–
COc1ccccc1C(=O)Nc1ccccc1SC(=O)c1ccccc1OC,"inconclusive: 10 µM [inhibitor, partial curve, poor fit]",–
CCc1c(C)sc(NC(=S)NC(C)C2CCCO2)c1C(=O)OC (stereo not drawn),"inconclusive: 22.4 µM [inhibitor, single point]",–
N#CCCn1cc(/C=N/NC(N)=S)c(-c2ccc(-c3ccccc3)cc2)n1,"inconclusive: 3.55 µM [inhibitor, partial curve, poor fit]",–
O=S(=O)(Nn1c(O)c(C=C2N=c3ccccc3=N2)sc1=S)c1ccccc1,"inconclusive: 11.2 µM [inhibitor, partial curve, poor fit]",–
CCc1ccccc1N1CC(c2nc3ccccc3n2CCCCOc2ccccc2OC)CC1=O (stereo not drawn),"inconclusive: 11.2 µM [inhibitor, partial curve, poor fit]",–
O=C(C/C(=N\NC(=O)c1ccccc1Br)C(F)(F)F)c1cccs1,"inconclusive: 17.8 µM [inhibitor, partial curve, poor fit]",–
O=C(CSc1ncccn1)N(Cc1cccnc1)C(CCc1ccccc1)c1nc2ccccc2[nH]1 (stereo not drawn),inactive,–
Cc1nc(SCC(=O)Nc2cccc(Cl)c2)n[nH]1,inactive,–
COCCNC(=S)N/N=C(\C)c1ccccc1F,"inconclusive: 28.2 µM [inhibitor, single point]",–
Fc1ccccc1Nc1n[nH]c(=S)s1,–,inactive: 2.45% [at 7.66 µM]
COc1ccccc1Nc1nc(-c2c(C)nc3ncccn23)cs1,"inconclusive: 7.94 µM [inhibitor, partial curve, poor fit]",–
O=C1C=C(Nc2ccc(Cl)cc2)CC(c2ccccc2)C1 (stereo not drawn),"inconclusive: 11.2 µM [inhibitor, single point]",–
Cc1ccc(NC(=O)NC(=O)c2cnccc2C(F)(F)F)c(C)c1,inactive,–
CSc1cccc(NC(=S)N(Cc2ccccc2)Cc2ccccn2)c1,"inconclusive: 28.2 µM [inhibitor, single point]",–
